Source: the supplement of paper PMC10369915
The list shows a part of the results. Cut-off read from the data, not from the text of the source: active = 3.2 or more and inactive = the rest. Most of these values are background signal.

Legend:
Test in all cases: enrichment score (SH2-bound / input frequency) (ratio); bacterial display of known human phosphotyrosine sites (pTyr-Var adds point mutants) read by sequencing; higher = stronger binding; tyrosines were phosphorylated by kinases first
Settings in all cases: peptide library: pTyr-Var
SHP2 C-SH2 domain E139D = molecular target: SHP2 C-SH2 domain E139D
[1] = molecular target: SHP2 C-SH2 domain wild-type
SHP2 N-SH2 domain L43F = molecular target: SHP2 N-SH2 domain L43F
SHP2 N-SH2 domain T42A = molecular target: SHP2 N-SH2 domain T42A
SHP2 N-SH2 domain T52S = molecular target: SHP2 N-SH2 domain T52S
[2] = molecular target: SHP2 N-SH2 domain wild-type
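Note: displayed peptides selected on beads carrying the immobilized SH2 domain, with library peptides lacking any tyrosine serving as negative controls.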

| Binder | enrichment score (SHP2 C-SH2 domain E139D) | enrichment score [1] | enrichment score (SHP2 N-SH2 domain L43F) | enrichment score (SHP2 N-SH2 domain T42A) | enrichment score (SHP2 N-SH2 domain T52S) | enrichment score [2] |
| --- | --- | --- | --- | --- | --- | --- |
| KRFAFYRDSPR [FOXE3_Y108_E103K] | inactive: 0.725 | inactive: 0.707 | inactive: 0.765 | inactive: 0.696 | inactive: 0.835 | inactive: 0.762 |
| AKFPSYEKNKK [FOXL2_Y91_F90S] | inactive: 0.685 | inactive: 0.497 | inactive: 0.529 | inactive: 0.538 | inactive: 0.698 | inactive: 1.04 |
| QPGTDYKIYRY [FN1_Y1970_L1974R] | inactive: 0.937 | inactive: 0.675 | inactive: 0.66 | inactive: 0.613 | inactive: 0.788 | inactive: 0.939 |
| PSPMPYAFCQM [FOXL2_Y215_S217F] | inactive: 0.684 | inactive: 0.994 | inactive: 0.869 | inactive: 0.766 | inactive: 0.577 | inactive: 1.12 |
| FLQTDDTSQVS [FRMPD1_Y846_Y846D] | inactive: 0.898 | inactive: 0.777 | inactive: 0.682 | inactive: 0.722 | inactive: 0.693 | inactive: 0.95 |
| RPPFTYATLIR [FOXP3_Y342] | inactive: 0.98 | inactive: 1.99 | inactive: 0.767 | inactive: 1.99 | inactive: 0.767 | inactive: 0.94 |
| LVRPPYSYSAL [FOXI1_Y126] | inactive: 1.15 | inactive: 1.15 | inactive: 0.87 | inactive: 2.95 | inactive: 0.983 | inactive: 1 |
| PSPMPCASCQM [FOXL2_Y215_Y215C] | inactive: 0.957 | inactive: 0.897 | inactive: 0.768 | inactive: 0.911 | inactive: 1.02 | inactive: 0.796 |
| QQLQGYIPSNF [FRK_Y99_YF] | inactive: 1.1 | inactive: 0.849 | inactive: 0.976 | inactive: 0.636 | inactive: 0.56 | inactive: 0.884 |
| KRGIDYILRHM [FRMD1_Y225] | active: 4.71 | active: 3.89 | active: 4.42 | active: 3.73 | active: 4.43 | active: 3.76 |
| SGTYQYIIAKF [FOXL2_Y83_I80T] | inactive: 1.62 | inactive: 1.63 | inactive: 2.4 | active: 5.1 | inactive: 2.84 | inactive: 1.55 |
| FKIFRYTLNDN [FN1_Y1975_L1974R_YF] | inactive: 1.04 | inactive: 0.844 | inactive: 1.05 | inactive: 1.07 | inactive: 0.935 | inactive: 0.943 |
| EIIPFYGMSSY [FNDC3B_Y175_T179S] | inactive: 1.13 | inactive: 1 | inactive: 1.07 | inactive: 1 | inactive: 1.18 | inactive: 1.08 |
| SGIYQYIIAKF [FOXL2_Y83] | inactive: 2.7 | inactive: 2.53 | inactive: 3.05 | active: 5.77 | active: 3.3 | inactive: 2.44 |
| AGADGYGFLAP [FOXL2_Y186_YF] | inactive: 0.469 | inactive: 0.567 | inactive: 0.526 | inactive: 0.526 | inactive: 0.459 | inactive: 0.935 |
| TLSGTYQFIIA [FOXL2_Y81_I80T_YF] | inactive: 1.94 | inactive: 1.96 | inactive: 1.77 | inactive: 1.84 | inactive: 2.01 | inactive: 1.53 |
| AKFPFYEKNKK [FOXL2_Y91] | inactive: 1.83 | inactive: 1.62 | inactive: 1.51 | inactive: 1.34 | inactive: 1.63 | inactive: 1.68 |
| SGIFQYNIAKF [FOXL2_Y83_I84N_YF] | inactive: 1.5 | inactive: 2.18 | inactive: 1.83 | inactive: 1.7 | inactive: 2.43 | inactive: 1.72 |
| QQLQGYVPSNF [FRK_Y99_I100V_YF] | inactive: 0.991 | inactive: 0.794 | inactive: 0.644 | inactive: 0.66 | inactive: 0.806 | inactive: 0.879 |

| Binder | enrichment score (SHP2 C-SH2 domain E139D) | enrichment score [1] | enrichment score (SHP2 N-SH2 domain L43F) | enrichment score (SHP2 N-SH2 domain T42A) | enrichment score (SHP2 N-SH2 domain T52S) | enrichment score [2] |
| --- | --- | --- | --- | --- | --- | --- |
| KPPFSYNALIM [FOXG1_Y186] | inactive: 0.569 | inactive: 0.565 | inactive: 0.609 | inactive: 0.48 | inactive: 0.496 | inactive: 0.634 |
| TLSGIYQYNIA [FOXL2_Y81_I84N] | inactive: 1.26 | inactive: 1.07 | inactive: 1.94 | inactive: 1.09 | inactive: 2.06 | inactive: 0.936 |
| QPGTDYKIFLF [FN1_Y1970_YF] | inactive: 0.695 | inactive: 0.79 | inactive: 0.615 | inactive: 0.837 | inactive: 0.598 | inactive: 0.967 |
| QQLQGYIPSNY [FRK_Y99] | inactive: 0.986 | inactive: 1.22 | inactive: 1.09 | inactive: 0.475 | inactive: 0.923 | inactive: 0.994 |
| SGIYQYSIAKF [FOXL2_Y83_I84S] | inactive: 1.76 | active: 5.18 | active: 4.59 | active: 7.77 | active: 6.15 | inactive: 1.72 |
| TLSGIYQFNIA [FOXL2_Y81_I84N_YF] | inactive: 1.75 | inactive: 1.4 | inactive: 1.9 | inactive: 1.5 | inactive: 1.8 | inactive: 1.65 |
| DAGTDYVGISC [FREM2_Y2061_R2066C] | inactive: 0.674 | inactive: 0.69 | inactive: 0.553 | inactive: 0.511 | inactive: 0.628 | inactive: 0.957 |
| QQLQGYVPSNY [FRK_Y99_I100V] | inactive: 0.914 | inactive: 0.747 | inactive: 0.923 | inactive: 0.892 | inactive: 0.756 | inactive: 0.941 |
| HPWPRYTTRAP [FNDC1_Y1281_Q1280R] | inactive: 0.24 | inactive: 0.296 | inactive: 0.306 | inactive: 0.428 | inactive: 0.306 | inactive: 0.327 |
| SGIFQYIIAKF [FOXL2_Y83_YF] | inactive: 2.6 | inactive: 1.92 | inactive: 1.81 | inactive: 2.21 | inactive: 2.35 | inactive: 2.22 |
| EKQLLYSENKT [FRK_Y132] | inactive: 1.04 | inactive: 0.887 | inactive: 0.973 | inactive: 0.83 | inactive: 0.867 | inactive: 1.4 |
| KVPRHYDDPGK [FOXG1_Y246] | inactive: 1.22 | inactive: 1.56 | inactive: 1.12 | inactive: 1.53 | inactive: 1.21 | inactive: 1.75 |
| FLQTDYTSQVS [FRMPD1_Y846] | inactive: 1.09 | inactive: 1 | inactive: 1.1 | inactive: 0.91 | inactive: 0.924 | inactive: 1.18 |
| LDPDSYNVFEN [FOXC1_Y159_M161V] | inactive: 0.706 | inactive: 0.804 | inactive: 0.883 | inactive: 0.599 | inactive: 0.768 | inactive: 0.892 |
| TGDVQYRSSVR [FREM2_Y2158] | inactive: 0.432 | inactive: 0.493 | inactive: 0.407 | inactive: 0.439 | inactive: 0.55 | inactive: 0.489 |
| TLSGIYQYIIA [FOXL2_Y81] | active: 3.5 | active: 3.33 | active: 3.3 | active: 3.98 | active: 3.63 | inactive: 3 |
| FGMSTYITRED [FNDC3B_Y180_YF] | inactive: 1.26 | inactive: 1.29 | inactive: 1.08 | inactive: 1.22 | inactive: 1.25 | inactive: 1.16 |
| EIIPFYGMSSF [FNDC3B_Y175_T179S_YF] | inactive: 0.819 | inactive: 1.05 | inactive: 0.844 | inactive: 0.933 | inactive: 1.03 | inactive: 1.02 |
| LDPDSYNMFEN [FOXC1_Y159] | inactive: 0.341 | inactive: 0.366 | inactive: 0.451 | inactive: 0.421 | inactive: 0.337 | inactive: 0.389 |
